In PMC12136788:
This is one part of the list.

B1: 145167808_145167928_2028_3pUTR_ENSMUSG00000030265_ENSMUST00000032399|mouse|control|control (ssRNA)
RNA: GGGAGUUCUACAGUCCGACGAUCCUUAAAGCAUUAGAUAAUUUUAAAUACCUAUCAGAUUUGGGAAGUACUUGGGAAUGUUUGUUUAGCUAGAGUUGAGAGACUAGUCAAACCUGCAUUUUCAAACCUUCUUAAAACCUUGCUCAACAGAGGAUUGAGCAUCA
B2: chr10:126679069:126679070:-_ENSMUSG00000074657_ENSMUST00000099172|mus_mus|FALSE|FALSE (ssRNA)
RNA: GGGAGUUCUACAGUCCGACGAUCGCGGAUCUCUUCCUCAUAUUUCUGCCUUUCCUCAGGUGCGAUGCGUACCACAAUGGAUGAGUUGUCAUUCACAGGGGUCUCCUCGCAGAGCUCAGCUCCCAGAGCUGAGUCCUCUCCAGCCAACAGAGGAUUGAGCAUCA
B3: chr18:52893488:52893489:-_ENSG00000196628_ENST00000354452|hu_mus|FALSE|FALSE (ssRNA)
RNA: GGGAGUUCUACAGUCCGACGAUCUAUUUAGACCAUUUCCGCGGAGUUAUGGCAUUUACUCAGUGCUGAUAGGUGGAAAAACUACUUCAACAGGGAUUUUUUUUUUCCUUAAUACAUGCCAAGAUUGUGUGGCUGUCAAAACAGCAACAGAGGAUUGAGCAUCA
B4: chr11:50193004:50193005:+_ENSMUSG00000007850_ENSMUST00000069304|mus_mus|FALSE|FALSE (ssRNA)
RNA: GGGAGUUCUACAGUCCGACGAUCUGAUUCAAGUUCAACAAAAGCCUCGCCACUUGGUCUGCCUUCUCUGGUGUAGAUGAAACGAAUACCUUGAGCCCCAUUUUGAAUUUUGCAGUCAGAAAAAAAGCGCUGCACUUCAUCCGCCAACAGAGGAUUGAGCAUCA
B5: 23909521_23909641_9022_CDS_ENSG00000151835_ENST00000382298|human|control|control (ssRNA)
RNA: GGGAGUUCUACAGUCCGACGAUCUUUCUCCAUACUUGAAAAGCCUGAUCUAUUACAAAUUAGCCACGUAGUAAGAUUUCCUUCAGAGUCCUCAGUAUCCAUAGUAUAGGUUAUUUGUUGAACUGGUAUGUCUUUGAGCUGCCUCAACAGAGGAUUGAGCAUCA
B6: chr17:21088332:21088333:+_ENSMUSG00000007564_ENSMUST00000007708|mus_mus|FALSE|FALSE (ssRNA)
RNA: GGGAGUUCUACAGUCCGACGAUCCUCACUUCUGGUCCGUUCAACCCCAAGGGCCAAGGCAAUUGUGGAGAGCUUCUUGAUACUAUUGAGACGAAGCUGAACGUCCUCAUUGCGGAGUUCAUCUAUGAGCACCGCAAUAGGAUACAACAGAGGAUUGAGCAUCA
B7: chr17:65930154:65930155:-_ENSMUSG00000024091_ENSMUST00000024897|mus_hu|FALSE|FALSE (ssRNA)
RNA: GGGAGUUCUACAGUCCGACGAUCGGUGACAUUAUCUCUGAAGGAUGCAGUUGAGGUUGAUCCAGGUUUAUCCGAAUGUGCUACCUUUCUGAGCCUUAAACCUUCAUCUCUCAGGUGCCGAUUUUCUUCUGAUAGCUUCAUCAUCAACAGAGGAUUGAGCAUCA
B8: chr1:163112212:163112213:-_ENSG00000143248_ENST00000313961|hu_hu|hu_hu_hu_mus_False|98_108 (ssRNA)
RNA: GGGAGUUCUACAGUCCGACGAUCUUUAUUUAUCCAGAAGCAUGAGUUACAUACUAGGCAAAGUAUUGGAUACAAUAAUCAGGAAACAAACACUAUUGGUCCAGAAUUUAAAACUUUAUGAGCGAAGUGCUGGCACAGGACUUACAACAGAGGAUUGAGCAUCA
B9: chr2:42797587:42797588:+_ENSG00000057935_ENST00000405094|hu_hu|FALSE|FALSE (ssRNA)
RNA: GGGAGUUCUACAGUCCGACGAUCAUAAAAGCAUACUACUUUUGCUUCCACGUUGCCACUUGCAGUCUUGUUGAGUUCUUCUAUCCUUCUUAUUAGGUAUGGGUUGCUGGAGGAAUUCUCAAAGUAGACAUAAUCUCCGACCCGCAACAGAGGAUUGAGCAUCA
B10: 136535675_136535795_2550_CDS_ENSMUSG00000030213_ENSMUST00000032335|mouse|control|control (ssRNA)
RNA: GGGAGUUCUACAGUCCGACGAUCCUGAGGCUGAGAGGUCACGGCAACGGGCACAUGCAGGAUCACUGGCAAGGGCUGCAGAGAGAUUGUAGGCUGAGGGGUCCCACUAGGCACCUGAGUAGUGGCAACUACGGUGGCUGUGCUCAACAGAGGAUUGAGCAUCA
B11: chr12:103220134:103220135:+_ENSMUSG00000041781_ENSMUST00000047357|mus_mus|motif|central (ssRNA)
RNA: GGGAGUUCUACAGUCCGACGAUCAGAGAGGGUGGUUAACUUGAUGAUAGAUGUCAUCUUUCUGGUCCAGUAAUGGGUAGCGGAAAGGGCCUGCCAGGCCAAUCUCCCCCCGGCACCGUCCGCCGCCCUUCCCAACCCCUAGUGCAACAGAGGAUUGAGCAUCA
B12: chr11:106643243:106643244:-_ENSMUSG00000020719_ENSMUST00000021062|mus_hu|motif|central (ssRNA)
RNA: GGGAGUUCUACAGUCCGACGAUCGCCUGUUGGUUCAUACCAUUGUGCAUAUUUGGAACAUUACUUCCGUAUUGCUGAGUGCGGUCAUAACCAUUCUGGUAAGUCCCUGUUGGAUUACCAGUCCUAAAACUGGUCUGUAUACCACAACAGAGGAUUGAGCAUCA
B13: chr12:39756943:39756944:-_ENSG00000139116_ENST00000544797|hu_mus|hu_hu_hu_mus_False|28_28 (ssRNA)
RNA: GGGAGUUCUACAGUCCGACGAUCGGUUUGGCUGUUACCCCCAAGGGAAUCCUGCAAGAGUCUUGUCAGCUUAGAGUCUCUGUAAGGGACAUGGGUGGCUCUCUUGCUCUUGUCUCCCAAGGCGCUGAUUACAUUCCCAAGAGCCAACAGAGGAUUGAGCAUCA
B14: chr11:79252212:79252213:+_ENSMUSG00000020716_ENSMUST00000071325|mus_mus|FALSE|FALSE (ssRNA)
RNA: GGGAGUUCUACAGUCCGACGAUCAGUAGCAGACAUUUCACAUCCUACUCCAUAAAGGUAGAGAGAAUGACAGGAGCUUCUAUCUGCCUGCUUAUUUUUAAGAAGAAAUUUAUUUCUGCAGAUCAGAAUUUCCCGUAACCACUUCAACAGAGGAUUGAGCAUCA
B15: chr15:76911759:76911760:-_ENSMUSG00000033565_ENSMUST00000166610|mus_hu|FALSE|FALSE (ssRNA)
RNA: GGGAGUUCUACAGUCCGACGAUCGAGGGACAUGGAGAUAAAGGUGUUCACUAGAGGCCUCCUUUAAGGAGCCCAGCUUCCAAGAGUACAGAAAGUCCAGGUCAUGAACUAUAGUAAAGCUGAAAAAGAAUCAUGCAUGUACUGCAACAGAGGAUUGAGCAUCA
B16: 135277904_135279378_1880_CDS_ENSG00000155561_ENST00000285968|human|control|control (ssRNA)
RNA: GGGAGUUCUACAGUCCGACGAUCAAUACUGCAUUGGAGGAGUCCCAGAAUCACCACAACAGGGGUCCACUGAGGGUGUUCACAGAGUGCCAAGCGAGCAUUUUCACUCCAAGUAAUGAUGGUAGACGUGAGCUGCAAAAAAGCCAACAGAGGAUUGAGCAUCA
B17: chr19:39321778:39321779:-_ENSG00000104823_ENST00000221418|hu_mus|FALSE|FALSE (ssRNA)
RNA: GGGAGUUCUACAGUCCGACGAUCAGUGAACAUCUUUCCUGCACCGGAGACUACAACAGCCCGGCAGUCCGAGUCUUUGGAUAUCUUUUGGAAGCAUUCCACCAACUCCCUCCAGAAAGCCCUGUUCAUGGCAUUCCUCUUCUCCAACAGAGGAUUGAGCAUCA
B18: chr12:16048344:16048345:+_ENSG00000023734_ENST00000419869|hu_hu|hu_hu_hu_mus_True|1_18 (ssRNA)
RNA: GGGAGUUCUACAGUCCGACGAUCAGAUCGUCCAUAAGUAAUAACCAAAAUCUCUCCUUCAGGAAUAUACUCCAUGCUGCUAACAGACAUAUUAAAAUUCAGAGAUUUCACUUCUGUCAUAGUAGCAUGAUCCCAGAGUCGAACCAACAGAGGAUUGAGCAUCA
B19: chr7:6441565:6441566:+_ENSG00000136238_ENST00000348035|hu_hu|motif|central (ssRNA)
RNA: GGGAGUUCUACAGUCCGACGAUCGGUGAUGGGAGUCAGCUUCUUCUCCUUCAGUUUCUCGAUCGUGUCUUUAUCAUCCCGGAGAUCAAGUUUAGUUCCCACUAGGAUGAUGGGAGUGUUGGGACAGUGGUGCCGCACCUCAGGCAACAGAGGAUUGAGCAUCA
B20: 75614384_75618798_385_CDS_ENSG00000170348_ENST00000303575|human|control|control (ssRNA)
RNA: GGGAGUUCUACAGUCCGACGAUCCUCCACUCCAUGCUUCAUGUCUAGGAUCACGAGUUGGUCAGGUAUCCGCCCUGUUCCCUUGCUCUCAAAACACACUUCAAACAUGUCAUAAUCUUCAGUGGUAAAGGCAAAUUUCCCCUUCAACAGAGGAUUGAGCAUCA
B21: 130712922_130715554_2226_CDS_ENSG00000017260_ENST00000359644|human|control|control (ssRNA)
RNA: GGGAGUUCUACAGUCCGACGAUCCAAUGAGAUUAAAGUUAAUGCUGCUAUACUCGUGCUCAGCUGGAAUCUAACGAAAUUUUUAAUGUUAUUAUAAAUCCCUUUACCCUCUUCGAUUGCAGACAUUAUGGUUUGAAAAUCAUCCAACAGAGGAUUGAGCAUCA
B22: chr12:60073987:60073988:-_ENSMUSG00000020986_ENSMUST00000021375|perfect_dup|motif|central (ssRNA)
RNA: GGGAGUUCUACAGUCCGACGAUCCUGGGUCAGAUCCUGACGCAUGAAAUGGUGACGAUAGUAUGAACUCUCAUCAGGACGGUUGUUAAAAACUUGCAAGAAAGGAGAUCUUCUUAAAUGAAACAUAAACUGAGGAUAAAGAGACAACAGAGGAUUGAGCAUCA

What follows are binders tested against T1, UNK ZnF1-3 (human, UniProt Q9C0B0 31-174) (assay: nsRBNS (natural sequence RNA bind-n-seq); RBNS binding buffer (assumed for nsRBNS): 25 mM Tris pH 7.5, 150 mM KCl, 3 mM MgCl2, 0.01% Triton X-100, 500 ug/ml BSA, 20 U/ml SUPERase-In, 4 C; UNK is unkempt and MSI1 is Musashi-1; names of the RNAs are library labels; protein concentration not given here; high values mean tight binding).
T1 sequence: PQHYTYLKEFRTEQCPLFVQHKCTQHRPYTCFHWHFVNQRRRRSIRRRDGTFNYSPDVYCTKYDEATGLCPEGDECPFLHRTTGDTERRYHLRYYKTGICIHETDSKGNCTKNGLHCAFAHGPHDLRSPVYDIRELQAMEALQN

| Binder | binding signal |
| --- | --- |
| B1 | 0.518 enrichment R |
| B2 | 0.941 enrichment R |
| B3 | 1.27 enrichment R |
| B4 | 1.44 enrichment R |
| B5 | 1.41 enrichment R |
| B6 | 0.71 enrichment R |
| B7 | 0.365 enrichment R |
| B8 | 1.22 enrichment R |
| B9 | 0.885 enrichment R |
| B10 | 1.73 enrichment R |
| B11 | 0.616 enrichment R |
| B12 | 0.449 enrichment R |
| B13 | 0.807 enrichment R |
| B14 | 0.977 enrichment R |
| B15 | 1.39 enrichment R |
| B16 | 2.05 enrichment R |
| B17 | 1.18 enrichment R |
| B18 | 0.668 enrichment R |
| B19 | 0.777 enrichment R |
| B20 | 0.909 enrichment R |
| B21 | 1.18 enrichment R |
| B22 | 1.44 enrichment R |
